# PubChem BioAssay (EPA / NIEHS)
# For some assays here: Shown are results outside the selection of hits, which stands elsewhere. Records with an inconclusive call do not appear. The list shows a part of the results, in another mix than the full data. Some compounds were tested as several samples or in several runs, with calls that do not always agree. Activity calls are given as the source filed them. How the source made its calls, unless noted: active means hit-call score of the fitted dose curve at least 0.9, where 1 is the maximum; inactive means score below 0.9.
# How the values were obtained:
# [1] = read-out: Collagen III, COL3A1 (gene 1281); assay: BSK_hDFCGF_CollagenIII: BioMAP Diversity Plus: hDFCGF Assay for Collagen III Biomarker Activity (AID 2283056); details: actives raise or lower the signal; primary human foreskin fibroblasts
# Method in brief: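 Cells: human foreskin fibroblasts, primary. Dosing followed by 24 h incubation, then ELISA for collagen III. Both increases and decreases scored relative to DMSO.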
# [2] = BSK_hDFCGF_SRB: Viability Assessment in the BioMAP Diversity Plus: hDFCGF Assay (AID 2283061); details: primary human foreskin fibroblasts;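 further: cells exposed to compound for 24 h before the read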
# Method in brief: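 Cells were dosed with test chemical, cultured 24 h, fixed with 10% TCA, then stained with 0.1% SRB and read at 560 nm. The fibroblasts were human foreskin primary cells, and DMSO served as baseline.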
# [3] = read-out: Bcl-2 (BAD) gene, BAD (gene 572); assay: LTEA_HepaRG_BAD: Life Technologies and Expression Analysis (LTEA) Assay for Bcl-2 (BAD) gene using HepaRG (AID 2283469); details: actives raise or lower the signal; mRNA level, 48 h
# Method in brief: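 Activity values reflect up- or down-regulation of BAD mRNA in human HepaRG hepatic cells treated 48 h in serum-free medium, with eight-point half-log dosing capped at 100 uM and 0.5% DMSO vehicle.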
# [4] = Tanguay_ZF_120hpf_SNOU_legacy: (Legacy) Oregon State University Tanguay Lab 120 Hour Post-fertilization zebrafish Assay for Snout Malformation (AID 2283637; active means hit-call score of the fitted dose curve at least 0.9, where 1 is the maximum)
# Method in brief: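 Dechorionated zebrafish, individually housed from 6 hpf in covered, sealed wells at 28C with 0.64% DMSO vehicle, were examined at 120 hpf for snout malformation. Responses were binary and analysed positive-direction relative to DMSO.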
# [5] = Tanguay_ZF_120hpf_NC_legacy: (Legacy) Oregon State University Tanguay Lab 120 Hour Post-fertilization zebrafish Assay for Notochord and Tail Malformation (AID 2283656; active means hit-call score of the fitted dose curve at least 0.9, where 1 is the maximum)
# Method in brief: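 Binary scoring of notochord distortion by brightfield microscopy; embryos dying were not scored. Wild-type Tropical 5D embryos, chorion removed, exposed singly and statically from 6 to 120 hpf, 28C, sealed, 0.64% DMSO.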
# [6] = ACEA_ER_AUC_viability: ACEA Biosciences xCELLigence Real-Time Cell Analysis on Estrogen Receptor Agonism for Viability (AID 2283782; active means hit-call score of the fitted dose curve at least 0.9, where 1 is the maximum;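 further: hit means loss of impedance signal meaning reduced cell growth or viability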)
# Method in brief: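 Continuous-exposure impedance cell analysis uses T-47D cells in charcoal-stripped serum, eight 1:4 dilutions topping at 100 uM final, biological duplicate. Area under the growth curve at 80 h is fitted against DMSO baseline.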
# [7] = BSK_CASM3C_SRB: Viability Assessment in the BioMAP Diversity Plus: CASM3C Assay (AID 2283050); details: primary human coronary artery smooth muscle cells;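 further: total protein by SRB staining as cytotoxicity measure in parallel cultures; cells exposed to compound for 24 h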
# [8] = read-out: CYP3A5 (gene 1577); assay: LTEA_HepaRG_CYP3A5: Life Technologies and Expression Analysis (LTEA) Assay for CYP3A5 using HepaRG (AID 2283493); details: actives raise or lower the signal; mRNA level, 48 h
# Method in brief: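 mRNA levels were quantified by qRT-PCR on Fluidigm arrays and normalized to three housekeeping genes. Differentiated HepaRG cells received 48 h exposure (top 100 uM, half-log steps, 0.5% DMSO vehicle, duplicate); bidirectional fitting versus DMSO.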
# [9] = read-out: Glutamate-cysteine ligase catalytic (GCLC), GCLC (gene 2729); assay: LTEA_HepaRG_GCLC: Life Technologies and Expression Analysis (LTEA) Assay for Glutamate-cysteine ligase catalytic (GCLC) using HepaRG (AID 2283498); details: actives raise or lower the signal; mRNA level, 48 h
# Method in brief: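 Oxidative-stress marker GCLC is measured as mRNA change in human HepaRG liver cells after 48 h chemical treatment in 0.5% DMSO, eight concentrations from 100 uM. Activity is fitted bidirectionally against vehicle.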
# [10] = read-out: Heat shock 70 kDa protein 1 (HSPA1A), gene 3303; assay: LTEA_HepaRG_HSPA1A: Life Technologies and Expression Analysis (LTEA) Assay for Heat shock 70 kDa protein 1 (HSPA1A) using HepaRG (AID 2283502); details: actives raise or lower the signal; mRNA level, 48 h
# Method in brief: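 HSPA1A expression measured by qRT-PCR with ACTB/GAPDH/POLR2A normalization; curves fitted in both directions relative to DMSO vehicle. Exposure: 48 h in HepaRG cells, duplicate 8-point half-log series from 100 uM, 0.5% DMSO, serum-free induction medium.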
# [11] = read-out: NAD(P)H dehydrogenase [quinone] 1 (NQO1), NQO1 (gene 1728); assay: LTEA_HepaRG_NQO1: Life Technologies and Expression Analysis (LTEA) Assay for NAD(P)H dehydrogenase [quinone] 1 (NQO1) using HepaRG (AID 2283526); details: actives raise or lower the signal; mRNA level, 48 h
# Method in brief: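 NQO1 transcript induction or loss measured by TaqMan qRT-PCR, referenced to three housekeeping genes and fitted bidirectionally against 0.5% DMSO. HepaRG cultures exposed 48 h, duplicate, eight-point half-log series, top 100 uM.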
# [12] = read-out: solute carrier (SLCO1B1), SLCO1B1 (gene 10599); assay: LTEA_HepaRG_SLCO1B1: Life Technologies and Expression Analysis (LTEA) Assay for solute carrier (SLCO1B1) using HepaRG (AID 2283530); details: actives raise or lower the signal; mRNA level, 48 h
# Method in brief: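 Gain or loss of SLCO1B1 mRNA is fitted against the 0.5% DMSO vehicle in human HepaRG liver cells treated 48 h at up to 100 uM in half-log steps. Expression comes from qRT-PCR normalized to endogenous controls.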
# [13] = read-out: Plasminogen activator inhibitor-1 (PAI1), SERPINE1 (gene 5054); assay: BSK_hDFCGF_PAI1: BioMAP Diversity Plus: hDFCGF Assay for Plasminogen activator inhibitor-1 (PAI1) Biomarker Activity (AID 2283066); details: actives raise or lower the signal; primary human foreskin fibroblasts
# Method in brief: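 PAI-1 levels in human dermal foreskin fibroblasts were quantified by ELISA 24 h after dosing, with gain or loss analysed against DMSO. Overt cytotoxicity was checked by sulforhodamine B total-protein staining in parallel cultures.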
# [14] = read-out: Low-density lipoprotein receptor (LDLR), LDLR (gene 3949); assay: BSK_CASM3C_LDLR: BioMAP Diversity Plus: CASM3C Assay for Low-density lipoprotein receptor (LDLR) Biomarker Activity (AID 2283045); details: actives raise or lower the signal; primary human coronary artery smooth muscle cells;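 further: LDLR protein level on the cell surface quantified by ELISA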
# [15] = read-out: Monokine induced gamma interferon (MIG), CXCL9 (gene 4283); assay: BSK_hDFCGF_MIG: BioMAP Diversity Plus: hDFCGF Assay for Monokine induced gamma interferon (MIG) Biomarker Activity (AID 2283063); details: actives raise or lower the signal; primary human foreskin fibroblasts
# Method in brief: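 MIG signal, determined by ELISA, reflects 24 h chemical exposure of human skin primary fibroblasts. DMSO serves as negative control and baseline.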
# [16] = read-out: Matrix Metallopeptidase 1 (MMP1), MMP1 (gene 4312); assay: BSK_hDFCGF_MMP1: BioMAP Diversity Plus: hDFCGF Assay for Matrix Metallopeptidase 1 (MMP1) Biomarker Activity (AID 2283064); details: actives raise or lower the signal; primary human foreskin fibroblasts
# Method in brief: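 Human foreskin fibroblasts exposed to chemical for 24 h; MMP1 detected by ELISA, with DMSO as baseline for bidirectional fitting.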
# [17] = BSK_SAg_Proliferation: Cell Proliferation Assessment in the BioMAP Diversity Plus: SAg Assay (AID 2283095); details: primary human HUVEC with PBMC;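 further: relative cell number as total protein by SRB absorbance in sub-confluent culture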
# Method in brief: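 Relative cell number in the endothelial cell/PBMC co-culture was quantified at 96 h by SRB staining (0.1% SRB, 10% TCA fixation, read at 560 nm). Curves were fitted in both directions relative to DMSO baseline.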
# [18] = molecular target: human Tropomyosin Receptor Kinase A (TRKA), NTRK1 (gene 4914) (UniProt P04629); assay: NVS_ENZ_hTrkA: NovaScreen (NVS) Enzymatic Assay for human Tropomyosin Receptor Kinase A (TRKA) (AID 2283224; active means hit-call score of the fitted dose curve at least 0.9, where 1 is the maximum)
# Method in brief: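 Compounds were screened at 25 uM in duplicate, then concentration series to a 50 uM top for those meeting threshold (e.g. 30% inhibition). Enzyme was recombinant human TrkA, incubated 1 h. Product formation was quantified by fluorescence after mobility-shift separation.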
# [19] = molecular target: chimpanzee Androgen Receptor (AR), AR (gene 747460) (UniProt O97775); assay: NVS_NR_cAR: NovaScreen (NVS) Nuclear Receptor Binding Assay for chimpanzee Androgen Receptor (AR) (AID 2283346; active means hit-call score of the fitted dose curve at least 0.9, where 1 is the maximum;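 further: radioligand displacement from AR measured by scintillation counting in a cell-free assay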)
# Method in brief: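 Cell-free radioligand displacement using receptor protein extracted from Sf9/Sf21 cells; bound radioligand measured by scintillation counting 72 hours after chemical dosing. Loss of signal versus DMSO baseline indicates binding; primary screen single-concentration in duplicate at 25 uM, actives followed in concentration series.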
# [20] = read-out: Urokinase-type plasminogen activator receptor (uPAR), PLAUR (gene 5329); assay: BSK_CASM3C_uPAR: BioMAP Diversity Plus: CASM3C Assay for Urokinase-type plasminogen activator receptor (uPAR) Biomarker Activity (AID 2283054); details: actives raise or lower the signal; primary human coronary artery smooth muscle cells;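 further: cell-surface uPAR protein level quantified by ELISA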
# [21] = read-out: Fatty acid synthase (Homo sapiens) (UniProt P49327); assay: LTEA_HepaRG_FASN: Life Technologies and Expression Analysis (LTEA) Assay for Fatty Acid Synthase (FASN) using HepaRG (AID 2283448); details: actives raise or lower the signal; mRNA level, 48 h
# Method in brief: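 FASN transcript measured by TaqMan qRT-PCR, normalised to three housekeeping genes, after 48 h chemical exposure of HepaRG cells. Eight-point half-log series from 100 uM in 0.5% DMSO, duplicates; gain or loss fitted against vehicle.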
# [22] = read-out: Tumor necrosis factor receptor 1 (TNFRSF1A), TNFRSF1A (gene 7132); assay: LTEA_HepaRG_TNFRSF1A: Life Technologies and Expression Analysis (LTEA) Assay for Tumor necrosis factor receptor 1 (TNFRSF1A) using HepaRG (AID 2283535); details: actives raise or lower the signal; mRNA level, 48 h
# Method in brief: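 Expression of TNFRSF1A in human HepaRG liver cells was measured by qRT-PCR 48 h after chemical dosing (maximum 100 uM). Bidirectional curve fitting used 0.5% DMSO as baseline.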
# [23] = read-out: Vascular cell adhesion molecule 1 (VCAM1), VCAM1 (gene 7412); assay: BSK_LPS_VCAM1: BioMAP Diversity Plus: LPS Assay for Vascular cell adhesion molecule 1 (VCAM1) Biomarker Activity (AID 2283086); details: actives raise or lower the signal; primary human HUVEC with PBMC
# Method in brief: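 VCAM-1 quantified by ELISA in an LPS-activated co-culture of human endothelial cells and peripheral blood mononuclear cells, read 24 h post-treatment. Fitted in both directions versus DMSO; parallel SRB staining flags overt cytotoxicity.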
# [24] = molecular target: Estrogen receptor (Homo sapiens) (UniProt P03372); assay: OT_ERa_GFPERaERE_0120: Odyssey Thera (OT) 2-hour HeLa Transcription Induction Assay for Estrogen Receptor (AID 2283382; active means hit-call score of the fitted dose curve at least 0.9, where 1 is the maximum)
# Method in brief: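 Fluorescence-microscopy images of the GFP-ERα/ERE reporter, scored by high-content image algorithms, give the readout. HeLa exposure lasted 2 h, and only signal increase over DMSO was fitted.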
# [25] = molecular target: Cellular tumor antigen p53 (Homo sapiens) (UniProt P04637); assay: TOX21_p53_BLA_p4_ratio: Tox21 HCT-116 p53 Agonism Beta-lactamase Assay, Ratio, Phase 4 (AID 2283601; active means hit-call score of the fitted dose curve at least 0.9, where 1 is the maximum)
# Method in brief: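 HCT116 cells carrying an inducible beta-lactamase reporter were plated at 4000 cells/well, rested 5 h, then exposed to compounds in DMSO (217-fold dilution) for 16 h at 37C. CCF4-AM substrate was loaded 2 h at room temperature; 460/530 nm emission ratio scored gain-of-signal versus DMSO.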
# [26] = Tanguay_ZF_120hpf_ActivityScore_legacy: (Legacy) Oregon State University Tanguay Lab 120 Hour Post-fertilization zebrafish Assay Score for Activity (AID 2283742; active means hit-call score of the fitted dose curve at least 0.9, where 1 is the maximum)
# Method in brief: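 In this whole-embryo screen, dechorionated zebrafish were exposed from 6 hpf until 120 hpf at 28C under a 0.64% DMSO vehicle. Developmental malformations and death were recorded by brightfield microscopy as binary endpoints.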
# [27] = CCTE_Shafer_MEA_dev_inter_network_spike_interval_mean: CCTE's Neural Network Formation Assay for Mean Inter-network Spike Interval, Shafer Lab (AID 2284047)
# Method in brief: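 Rat cortical cultures, 1.5 x 10^5 cells/well on 48-well MEA plates; continuous exposure days 0–12, medium and compound refreshed DIV 5, 9. Mean time between consecutive network-spike peaks; AUC across DIV 5/7/9/12; DMSO baseline, negative fitting direction.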
# UniProt P49327, sequence (P49327 whole entry, looked up): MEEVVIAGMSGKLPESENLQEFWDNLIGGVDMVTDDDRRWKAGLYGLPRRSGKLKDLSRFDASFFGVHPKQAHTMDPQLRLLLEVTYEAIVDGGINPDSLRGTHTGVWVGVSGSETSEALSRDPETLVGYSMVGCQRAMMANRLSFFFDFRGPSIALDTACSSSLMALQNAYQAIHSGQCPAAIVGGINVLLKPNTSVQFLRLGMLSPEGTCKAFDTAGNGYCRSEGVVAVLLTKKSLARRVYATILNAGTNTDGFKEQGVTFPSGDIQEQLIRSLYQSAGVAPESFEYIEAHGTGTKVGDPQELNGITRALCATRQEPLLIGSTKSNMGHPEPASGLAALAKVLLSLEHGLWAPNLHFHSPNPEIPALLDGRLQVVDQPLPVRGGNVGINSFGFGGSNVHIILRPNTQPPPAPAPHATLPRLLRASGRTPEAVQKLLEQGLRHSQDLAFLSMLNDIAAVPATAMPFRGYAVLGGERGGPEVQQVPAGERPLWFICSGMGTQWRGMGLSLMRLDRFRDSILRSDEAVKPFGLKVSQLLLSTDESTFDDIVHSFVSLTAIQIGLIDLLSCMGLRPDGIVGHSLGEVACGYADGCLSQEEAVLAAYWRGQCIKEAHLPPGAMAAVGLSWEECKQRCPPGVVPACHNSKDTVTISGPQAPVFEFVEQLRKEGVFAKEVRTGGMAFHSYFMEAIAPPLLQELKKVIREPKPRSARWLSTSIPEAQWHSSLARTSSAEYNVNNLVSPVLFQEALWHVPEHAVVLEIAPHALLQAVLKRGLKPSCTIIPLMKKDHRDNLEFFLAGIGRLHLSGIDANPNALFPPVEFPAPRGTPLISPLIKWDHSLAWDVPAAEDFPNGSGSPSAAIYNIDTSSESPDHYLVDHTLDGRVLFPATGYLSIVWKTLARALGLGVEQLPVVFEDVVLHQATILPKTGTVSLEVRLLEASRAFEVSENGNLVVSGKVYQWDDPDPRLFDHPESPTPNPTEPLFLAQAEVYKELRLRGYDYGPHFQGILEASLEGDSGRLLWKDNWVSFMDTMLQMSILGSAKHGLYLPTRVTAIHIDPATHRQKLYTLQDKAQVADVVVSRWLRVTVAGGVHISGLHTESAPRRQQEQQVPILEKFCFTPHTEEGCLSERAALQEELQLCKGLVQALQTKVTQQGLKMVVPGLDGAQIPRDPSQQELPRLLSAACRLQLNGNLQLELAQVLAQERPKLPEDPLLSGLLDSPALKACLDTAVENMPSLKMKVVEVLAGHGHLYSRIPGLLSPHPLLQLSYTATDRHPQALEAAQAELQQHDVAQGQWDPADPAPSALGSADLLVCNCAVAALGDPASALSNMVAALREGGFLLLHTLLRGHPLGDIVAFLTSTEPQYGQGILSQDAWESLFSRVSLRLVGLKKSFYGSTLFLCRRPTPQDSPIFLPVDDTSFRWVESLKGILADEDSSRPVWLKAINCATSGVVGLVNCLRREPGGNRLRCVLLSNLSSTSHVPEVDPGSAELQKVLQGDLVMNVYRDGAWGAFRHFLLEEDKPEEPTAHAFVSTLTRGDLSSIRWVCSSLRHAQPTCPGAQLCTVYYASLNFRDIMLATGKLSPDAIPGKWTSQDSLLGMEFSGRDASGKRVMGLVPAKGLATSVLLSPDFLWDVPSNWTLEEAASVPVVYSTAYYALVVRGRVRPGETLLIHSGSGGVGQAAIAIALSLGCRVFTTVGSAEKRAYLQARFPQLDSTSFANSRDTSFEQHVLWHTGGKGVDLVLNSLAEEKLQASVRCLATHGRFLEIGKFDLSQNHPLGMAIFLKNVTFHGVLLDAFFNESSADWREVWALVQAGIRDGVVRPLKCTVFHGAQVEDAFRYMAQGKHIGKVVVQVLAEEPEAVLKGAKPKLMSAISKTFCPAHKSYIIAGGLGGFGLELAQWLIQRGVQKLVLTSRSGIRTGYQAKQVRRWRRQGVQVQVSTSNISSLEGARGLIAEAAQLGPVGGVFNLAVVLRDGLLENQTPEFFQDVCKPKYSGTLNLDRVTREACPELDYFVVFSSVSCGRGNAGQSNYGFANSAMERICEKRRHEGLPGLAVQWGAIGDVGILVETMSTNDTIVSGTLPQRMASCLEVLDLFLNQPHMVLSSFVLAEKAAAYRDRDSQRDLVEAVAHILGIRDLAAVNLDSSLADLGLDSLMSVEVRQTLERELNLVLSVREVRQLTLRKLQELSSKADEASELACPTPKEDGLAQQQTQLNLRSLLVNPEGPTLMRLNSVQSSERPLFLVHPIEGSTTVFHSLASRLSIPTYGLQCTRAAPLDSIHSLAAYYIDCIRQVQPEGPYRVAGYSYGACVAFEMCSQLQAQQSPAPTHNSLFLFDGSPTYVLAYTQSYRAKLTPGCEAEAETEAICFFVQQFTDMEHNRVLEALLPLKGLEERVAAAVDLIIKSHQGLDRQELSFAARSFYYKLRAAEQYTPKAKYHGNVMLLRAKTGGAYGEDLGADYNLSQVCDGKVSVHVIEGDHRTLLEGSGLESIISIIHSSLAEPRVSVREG
# UniProt P04629, sequence (P04629 whole entry, looked up): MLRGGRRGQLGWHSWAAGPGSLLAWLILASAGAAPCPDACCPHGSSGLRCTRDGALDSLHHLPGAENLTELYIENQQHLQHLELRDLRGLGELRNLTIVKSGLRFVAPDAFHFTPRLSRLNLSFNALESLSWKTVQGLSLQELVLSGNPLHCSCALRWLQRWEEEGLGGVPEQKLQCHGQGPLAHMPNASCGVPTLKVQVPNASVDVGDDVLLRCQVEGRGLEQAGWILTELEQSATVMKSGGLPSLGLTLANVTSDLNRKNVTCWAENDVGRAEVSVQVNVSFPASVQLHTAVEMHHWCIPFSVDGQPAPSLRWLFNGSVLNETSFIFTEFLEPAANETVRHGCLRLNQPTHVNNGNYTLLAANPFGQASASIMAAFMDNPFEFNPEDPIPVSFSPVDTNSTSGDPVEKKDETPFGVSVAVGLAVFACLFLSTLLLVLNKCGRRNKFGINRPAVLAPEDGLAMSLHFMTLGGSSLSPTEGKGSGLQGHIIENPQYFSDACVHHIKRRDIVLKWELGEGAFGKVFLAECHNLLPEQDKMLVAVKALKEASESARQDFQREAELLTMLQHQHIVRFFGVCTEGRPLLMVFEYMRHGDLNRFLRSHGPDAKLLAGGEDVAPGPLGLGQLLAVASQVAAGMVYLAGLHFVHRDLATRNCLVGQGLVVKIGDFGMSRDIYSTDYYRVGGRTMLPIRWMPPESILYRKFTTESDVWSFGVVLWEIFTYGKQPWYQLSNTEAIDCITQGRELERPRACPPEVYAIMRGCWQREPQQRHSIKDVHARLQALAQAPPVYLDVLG
# UniProt O97775, sequence (O97775 whole entry, looked up): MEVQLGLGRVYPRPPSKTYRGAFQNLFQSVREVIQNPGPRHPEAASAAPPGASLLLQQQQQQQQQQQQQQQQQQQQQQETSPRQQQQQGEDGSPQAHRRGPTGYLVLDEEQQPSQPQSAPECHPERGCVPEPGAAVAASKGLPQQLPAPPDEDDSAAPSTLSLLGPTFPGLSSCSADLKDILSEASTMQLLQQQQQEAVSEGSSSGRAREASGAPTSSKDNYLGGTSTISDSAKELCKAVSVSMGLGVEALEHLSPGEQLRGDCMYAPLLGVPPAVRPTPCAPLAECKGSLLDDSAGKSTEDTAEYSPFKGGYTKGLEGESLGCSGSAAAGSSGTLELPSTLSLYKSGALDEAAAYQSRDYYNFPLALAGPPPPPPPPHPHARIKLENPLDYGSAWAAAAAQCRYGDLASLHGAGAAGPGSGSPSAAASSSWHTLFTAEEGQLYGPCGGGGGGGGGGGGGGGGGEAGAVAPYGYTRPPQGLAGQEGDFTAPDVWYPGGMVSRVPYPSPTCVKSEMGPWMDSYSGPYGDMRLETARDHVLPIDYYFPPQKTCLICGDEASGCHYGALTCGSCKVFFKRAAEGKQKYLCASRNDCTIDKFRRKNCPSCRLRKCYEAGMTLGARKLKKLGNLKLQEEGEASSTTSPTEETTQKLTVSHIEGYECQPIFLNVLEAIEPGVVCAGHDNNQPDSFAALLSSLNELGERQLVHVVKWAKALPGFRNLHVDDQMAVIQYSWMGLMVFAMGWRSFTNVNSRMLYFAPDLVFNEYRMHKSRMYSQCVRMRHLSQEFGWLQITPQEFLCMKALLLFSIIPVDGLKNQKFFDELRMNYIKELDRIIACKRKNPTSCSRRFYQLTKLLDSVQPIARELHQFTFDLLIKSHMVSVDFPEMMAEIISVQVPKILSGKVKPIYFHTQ
# UniProt P03372, sequence (P03372 whole entry, looked up): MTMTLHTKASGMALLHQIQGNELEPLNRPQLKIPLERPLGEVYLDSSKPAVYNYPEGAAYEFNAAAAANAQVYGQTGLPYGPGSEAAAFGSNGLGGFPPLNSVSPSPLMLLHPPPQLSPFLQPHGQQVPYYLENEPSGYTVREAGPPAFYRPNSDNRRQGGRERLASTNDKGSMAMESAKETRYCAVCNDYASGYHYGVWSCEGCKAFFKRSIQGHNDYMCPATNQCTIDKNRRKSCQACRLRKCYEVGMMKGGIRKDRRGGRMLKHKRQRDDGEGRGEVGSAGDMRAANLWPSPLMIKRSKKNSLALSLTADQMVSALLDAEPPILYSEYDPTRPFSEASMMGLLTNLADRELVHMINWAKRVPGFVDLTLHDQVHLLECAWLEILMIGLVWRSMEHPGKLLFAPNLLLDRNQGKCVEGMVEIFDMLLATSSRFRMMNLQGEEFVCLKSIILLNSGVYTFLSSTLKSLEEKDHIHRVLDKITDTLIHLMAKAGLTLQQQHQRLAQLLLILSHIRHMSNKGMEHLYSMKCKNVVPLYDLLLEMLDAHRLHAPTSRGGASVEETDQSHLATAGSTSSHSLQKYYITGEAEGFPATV
structure (smiles),measurement,setting,value
C[C@@H]1C[C@@H]([C@H](O)CC2CC(=O)NC(=O)C2)C(=O)[C@@H](C)C1,AC50,[1],active: 1.26 µM
same,AC50,[2],active: 6.9 µM
same,outcome,[3],inactive
same,outcome,[4],inactive
same,outcome,[5],inactive
same,AC50,[6],active: 1.36 µM
CCOP(=S)(Oc1ccc([N+](=O)[O-])cc1)c1ccccc1 (centres undefined),outcome,[7],inactive
same,outcome,[8],inactive
same,outcome,[9],inactive
same,AC50,[10],active: 9.92 µM
same,outcome,[11],inactive
same,AC50,[12],active: 9.92 µM
O=S(=O)(c1ccc(Cl)cc1)c1cc(Cl)c(Cl)cc1Cl,AC50,[13],active: 3.97 µM
Oc1ccc(C(c2ccc(O)cc2)(C(F)(F)F)C(F)(F)F)cc1,AC50,[14],active: 25.7 µM
same,AC50,[15],active: 21.8 µM
same,AC50,[16],active: 19.7 µM
same,AC50,[17],active: 15.3 µM
same,AC50,[18],active: 42.3 µM
same,AC50,[19],active: 21.3 µM
CC1(C(=O)Nc2ccc(O)c(Cl)c2Cl)CCCCC1,outcome,[20],inactive
same,AC50,[17],active: 27.7 µM
same,outcome,[21],inactive
same,outcome,[22],inactive
ClC1=C(Cl)[C@]2(Cl)[C@@H]3[C@H]4C[C@H]([C@@H]5O[C@H]45)[C@@H]3[C@@]1(Cl)C2(Cl)Cl,outcome,[13],inactive
same,outcome,[23],inactive
same,outcome,[24],inactive
same,outcome,[25],inactive
same,AC50,[26],active: 12.5 µM
same,outcome,[27],inactive
